Several values for one entry are separate records, joined by “and”; a condition that tells them apart may be missing. Identical values can stand only once. Counter-ions that a name gives are not always drawn. Whole data set: some 2,000 compounds, median “fractional viability relative to vehicle” near 0.91, cut for the lowest 2% near 0.045. The list shows a part of the results.
Test system: TYKNU
Assay: fractional viability relative to vehicle; TYKNU is a high-grade serous ovarian cancer line; higher = less growth inhibition
Conditions: 72 h
In short: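 TYKNU control cells or lentiCRISPRv2 knockout derivatives were seeded at 500 cells per well into drug-stamped 384-well plates holding a ~2100-compound library at 2 or 10 μM, in duplicate. Cells were grown at 37 °C in 5% CO2 in RPMI 1640 with 10% FBS, and drug treatment lasted 72 h. Viability was read by Cell Titer Glo luminescence. Duplicate treatment wells were averaged and normalised to duplicate control wells from the same plate position.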

[1] = 2uM, genotype: DNM1L knockout (sgDNM1L #1)
[2] = 2uM, genotype: sgCTRLA1 (non-targeting control)
[3] = 10uM, genotype: DNM1L knockout (sgDNM1L #1)
[4] = 10uM, genotype: sgCTRLA1 (non-targeting control)

SMILES	fractional viability [1]	fractional viability [2]	fractional viability [3]	fractional viability [4]
CC1Cc2ccccc2N1NC(=O)c1ccc(Cl)c(S(N)(=O)=O)c1 (centres undefined) [Indapamide]	0.853	1.02	0.844	0.996
O=c1cc[nH]c(=S)[nH]1 [2-Thiouracil]	1.06	1.17	0.961	1.13
Cc1nc(-c2cn3c(n2)-c2ccc(-c4cnn(C(C)(C)C(N)=O)c4)cc2OCC3)n(C(C)C)n1	0.856	1.28	0.86	1.16
O=C(/C=C/c1ccc(CN(CCO)CCc2c[nH]c3ccccc23)cc1)NO [LAQ824 (Dacinostat)]	0.0782	0.125	0.0775	0.108
CC(C)(C)c1ccc(-c2nc3ccccc3[nH]2)cc1	0.665	0.675	0.173	0.113
COc1ccc(S(=O)(=O)N(C(C)=O)c2ccccc2/C=C/c2cc[n+]([O-])cc2)cc1	0.198	0.303	0.116	0.176
Cc1c(F)cc(C(=O)NC2CC2)cc1-c1ccc(C(=O)NCC(C)(C)C)cn1	0.773	1.12	0.747	0.928
Cc1cc(C)c(/C=C2\C(=O)Nc3ccccc32)[nH]1 [Semaxanib (SU5416)]	1.09	1.14	0.782	1.02
CC(C)c1cc(-c2ccc(F)c3ccccc23)nc(N)n1	1.01	1.07	1.02	1.21
O=C(NOC[C@H](O)CO)c1ccc(F)c(F)c1Nc1ccc(I)cc1F	0.353	0.349	0.211	0.232
O=C1CC2(CCCC2)CC(=O)N1CCCCN1CCN(c2ncccn2)CC1 [Buspirone HCl]	0.95	1.14	1.08	1.14
CC[C@H]1OC(=O)[C@H](C)[C@@H](O[C@H]2C[C@@](C)(OC)[C@@H](O)[C@H](C)O2)[C@H](C)[C@@H](O[C@@H]2O[C@H](C)C[C@H](N(C)C)[C@H]2O)[C@](C)(O)C[C@@H](C)[C@@H]2N[C@@H](COCCOC)O[C@H]([C@H]2C)[C@]1(C)O [Dirithromycin]	0.963	1.15	0.711	1.09
C[C@H]1C[C@@H]2[C@H]([C@@H](O)C[C@@]3(C)[C@H]2CC[C@]3(O)C(=O)CO)[C@@]2(C)C=CC(=O)C=C12 [Methylprednisolone]	1.15	1.16	1.07	1.07
O=C1c2ccc(Nc3ccc(F)cc3F)cc2CCc2ccc(OC[C@H](O)CO)cc21 [Skepinone-L]	0.864	1.06	0.397	0.641
NC(=O)C(c1ccccc1)(c1ccccc1)[C@@H]1CCN(CCc2ccc3c(c2)CCO3)C1 [Darifenacin HBr]	0.951	1.21	0.794	0.953
CCCNCC(O)COc1ccccc1C(=O)CCc1ccccc1 (centres undefined) [Propafenone HCl]	1.03	1.02	0.762	0.617
COc1cc([C@@H]2c3cc4c(cc3[C@@H](O[C@@H]3O[C@@H]5CO[C@@H](C)O[C@H]5[C@H](O)[C@H]3O)[C@H]3COC(=O)[C@H]23)OCO4)cc(OC)c1O [Etoposide]	0.524	0.543	0.23	0.263
CN(C)C(=S)NN=C(c1ccccn1)c1ccccn1	0.177	0.132	0.255	0.107
COc1ccccc1OCC(O)CN1CCN(CC(=O)Nc2c(C)cccc2C)CC1 (centres undefined) [Ranolazine]	0.992	1.1	0.859	0.975

SMILES	fractional viability [1]	fractional viability [2]	fractional viability [3]	fractional viability [4]
COc1ccccc1OCC(O)CN1CCN(CC(=O)Nc2c(C)cccc2C)CC1 (centres undefined) [Ranolazine 2HCl]	0.984	1.14	0.894	1.16
Nc1nc2n[nH]nc2c(=O)[nH]1 [Azaguanine-8]	1.01	1.31	0.697	0.754
CN(C)c1nc(N(C)C)nc(N(C)C)n1 [Altretamine]	1.05	1.07	0.977	1.03
COc1cc2c(Oc3ccc4[nH]c(C)cc4c3F)ncnc2cc1OCCCN1CCCC1 [Cediranib (AZD2171)]	0.99	0.847	0.0461	0.0421
O=C(O)c1cc(-c2ccccc2)nc2ccccc12 [Cinchophen]	0.777	1.12	0.728	0.907
CC(=O)O[C@]1(C(C)=O)CC[C@H]2[C@@H]3C[C@H](C)C4=CC(=O)CC[C@]4(C)[C@H]3CC[C@@]21C [Medroxyprogesterone acetate]	1.14	1.13	0.772	1.02
O=S(=O)(O)c1cc(O)ccc1O [Ethamsylate]	0.83	1.2	0.799	1.02
O=C1C[C@@H](c2ccc(O)cc2)Oc2cc(O)cc(O)c21 [Naringenin]	0.825	1.14	0.837	1.07
CCC(=O)O[C@]1(C(=O)CCl)[C@@H](C)C[C@H]2[C@@H]3CCC4=CC(=O)C=C[C@]4(C)[C@@]3(F)[C@@H](O)C[C@@]21C [Clobetasol propionate]	1.17	0.996	0.689	0.883
CCOC(=O)[C@H](CCc1ccccc1)N[C@H]1CS[C@H](c2cccs2)CN(CC(=O)O)C1=O [Temocapril HCl]	0.889	1.23	0.83	1.04
COc1ccc(F)c(F)c1C(=O)c1cnc(NC2CCN(S(C)(=O)=O)CC2)nc1N	0.195	0.242	0.39	0.328
CCCCC(F)(F)[C@@]1(O)CC[C@H]2[C@@H](CC(=O)[C@@H]2CCCCCCC(=O)O)O1 [Lubiprostone]	0.983	1.07	0.958	0.968
COc1ccc(C2CNC(=O)C2)cc1OC1CCCC1 (centres undefined) [Rolipram]	0.989	1.21	0.861	1.08
O=c1c(O)c(-c2ccc(O)cc2O)oc2cc(O)cc(O)c12 [Morin Hydrate]	1.02	1.01	1.01	1.13
OC[C@H]1O[C@@H](Oc2cc(O)cc(/C=C/c3ccc(O)cc3)c2)[C@H](O)[C@@H](O)[C@@H]1O [Polydatin]	1.07	1.04	0.862	1.08
CC(=O)Nc1nc(C)c(-c2ccc(Cl)c(S(=O)(=O)NCCO)c2)s1	0.912	0.811	0.532	0.494
Cc1nc(=O)c2cc(CN(C)c3ccc(C(=O)N[C@@H](CCC(=O)O)C(=O)O)s3)ccc2[nH]1 [Raltitrexed]	0.346	0.362	0.297	0.391
CCCOc1ccn2c(C(C)=O)cc(-c3ccccc3S(C)(=O)=O)c2c1	0.858	1.12	0.736	1.1
CC(/C=C1\SC(=S)N(CC(=O)O)C1=O)=C\c1ccccc1 [Epalrestat]	0.92	1.11	0.89	1.03

SMILES	fractional viability [1]	fractional viability [2]	fractional viability [3]	fractional viability [4]
O=C1c2ccccc2C(=O)c2c1ccc(O)c2O [Alizarin]	0.834	1.1	0.8	1.06
O=c1oc2ccccc2c(O)c1Cc1c(O)c2ccccc2oc1=O [Dicoumarol]	0.874	1.12	0.829	1.13
CS(=O)(=O)N1CCc2c(-c3cnc(N)nc3)nc(N3CCOCC3)nc21	0.46	0.559	0.184	0.198
CC(=O)[C@]1(O)Cc2c(O)c3c(c(O)c2[C@@H](O[C@H]2C[C@H](N)[C@H](O)[C@H](C)O2)C1)C(=O)c1ccccc1C3=O [Idarubicin HCl]	0.362	0.165	0.042	0.021
CC[C@H](C)C(=O)O[C@H]1CCC=C2C=C[C@H](C)[C@H](CC[C@@H]3C[C@@H](O)CC(=O)O3)[C@H]21 [Mevastatin]	0.448	0.673	0.258	0.286
Nc1cc(C(Cl)=C(Cl)Cl)c(S(N)(=O)=O)cc1S(N)(=O)=O [Clorsulon]	0.803	1.15	0.714	1.18
Cc1ccccc1CN1C2=NCCN2C(=O)C2=C1CCN(Cc1ccccc1)C2 [TIC10 Analogue]	0.814	1.06	0.67	0.91
C[C@H](CCC(=O)O)[C@H]1CC[C@H]2[C@@H]3[C@H](O)C[C@@H]4C[C@H](O)CC[C@]4(C)[C@H]3CC[C@]12C [Chenodeoxycholic Acid]	0.966	1.13	0.963	0.92
C=CC(=O)Nc1cccc(Oc2nc(Nc3ccc(N4CCN(C)CC4)cc3OC)ncc2Cl)c1	0.754	0.963	0.345	0.492
O=C(/C=C/c1ccc(O)c(O)c1)OCCc1ccccc1 [Caffeic Acid Phenethyl Ester]	0.971	0.949	0.493	0.467
CC(C)CC(CC(=O)NO)C(=O)N[C@@H](Cc1ccc2ccccc2c1)C(=O)N[C@@H](C)C(=O)NCCN (some centres undefined)	0.816	0.895	0.788	0.647
COc1ccc([C@@H]2CC(=O)c3c(O)cc(O[C@@H]4O[C@H](CO)[C@@H](O)[C@H](O)[C@H]4O[C@@H]4O[C@@H](C)[C@H](O)[C@@H](O)[C@H]4O)cc3O2)cc1O [Neohesperidin]	0.979	1.12	0.768	1.01
CC(=O)OCC(CCn1cnc2cnc(N)nc21)COC(C)=O [Famciclovir]	0.976	1.12	0.716	1.09
C[C@@H]1CCN(C(=O)CC#N)C[C@@H]1N(C)c1ncnc2[nH]ccc12	0.918 and 1.15	1.15 and 1.27	0.956 and 0.862	1.1 and 1.2
C#CC[C@H](c1nc2cc(Cl)ccc2c(=O)n1Nc1ccccc1)N(CCCN)C(=O)c1cccc(Cl)c1F	0.249	0.25	0.0262	0.0115
CCOC(=O)Nc1cc(-c2ccc(C)c(NS(C)(=O)=O)c2)nn2c(C)nnc12 [Bromosporine]	0.604	0.985	0.235	0.197
Cc1cc2c(F)c(Oc3ncnn4cc(OC[C@@H](C)OC(=O)[C@H](C)N)c(C)c34)ccc2[nH]1	0.797	0.89	0.458	0.444
O=S(=O)(O)NC1CCCCC1 [Cyclamic  acid]	1.04	1.15	0.844	1.1

— the supplement of paper PMC5919970
